Where a chain is given by its changes, count along the chain named. Names may count otherwise. These are yes or no findings as the source states them, for the method shown. In cells and extracts the contact can be indirect. Some binding calls cover weakened binding; strength is not graded here. Sequences can lack the tags named with a protein. One block for each binder: values may come before it.
Key:
Experiment in all cases: pull-down; GST fusions (from E. coli) immobilized on GSH sepharose, incubated with total protein extract from E. coli containing the HA fusion; washed twice with buffer A1, eluted with free GSH; anti-HA blot; only the target purified
[1] = target: T1, GST–Ino2 TAD2 (aa 101–135) (S. cerevisiae) (UniProt P26798)
T1 sequence: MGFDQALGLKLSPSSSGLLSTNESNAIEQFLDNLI

[2] = target: T2, GST–Ino2 (comprising TAD1 + TAD2, aa 1–135) (S. cerevisiae) (UniProt P26798)
T2 sequence: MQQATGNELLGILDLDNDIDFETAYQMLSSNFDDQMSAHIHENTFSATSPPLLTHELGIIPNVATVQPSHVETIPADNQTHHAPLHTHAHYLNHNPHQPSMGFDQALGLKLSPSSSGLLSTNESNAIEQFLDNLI

[3] = target: T3, GST–Ino2 TAD1 (aa 1–35) (S. cerevisiae) (UniProt P26798)
T3 sequence: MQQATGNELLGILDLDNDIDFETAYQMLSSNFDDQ

binding [2]: binds | binding [3]: binds | binding [1]: no binding
B9: HA3-Toa1 aa 1–143 (domain or fragment, UniProt P32773 1-143)
chain: MSNAEASRVYEIIVESVVNEVREDFENAGIDEQTLQDLKNIWQKKLTETKVTTFSWDNQFNEGNINGVQNDLNFNLATPGVNSSEFNIKEENTGNEGLILPNINSNNNIPHSGETNINTNTVEATNNSGATLNTNTSGNTNAD

binding [3]: binds
B10: Toa1 ABD1 (aa 1–143) L38A K39A (domain or fragment, UniProt P32773 1-143)
chain: B9 chain with L38A, K39A

binding [1]: no binding
B15: HA-Bdf1 aa 273–349 (domain or fragment, UniProt P35817 273-349)
chain: EDAPIVIRRAQTHNGRPKRTIHPPKSKDIYPYESKKPKSKRLQQAMKFCQSVLKELMAKKHASYNYPFLEPVDPVSM

binding [1]: binds
B16: HA-Bdf1 aa 273–436 (domain or fragment, UniProt P35817 273-436)
chain: EDAPIVIRRAQTHNGRPKRTIHPPKSKDIYPYESKKPKSKRLQQAMKFCQSVLKELMAKKHASYNYPFLEPVDPVSMNLPTYFDYVKEPMDLGTIAKKLNDWQYQTMEDFERDVRLVFKNCYTFNPDGTIVNMMGHRLEEVFNSKWADRPNLDDYDSDEDSRTQ

binding [2]: binds
B17: HA-Toa1 aa 226–286 (domain or fragment, UniProt P32773 226-286)
chain: DDDYLISEGEEDGPDENLMLCLYDKVTRTKARWKCSLKDGVVTINRNDYTFQKAQVEAEWV

binding [1]: no binding
B18: HA-Bdf1 aa 132–272 (domain or fragment, UniProt P35817 132-272)
chain: APAPPPEPDMNNLPQNPIPKHQQKHALLAIKAVKRLKDARPFLQPVDPVKLDIPFYFNYIKRPMDLSTIERKLNVGAYEVPEQITEDFNLMVNNSIKFNGPNAGISQMARNIQASFEKHMLNMPAKDAPPVIAKGRRSSAQ

binding [1]: binds
B19: HA-Bdf1 aa 1–272 (domain or fragment, UniProt P35817 1-272)
chain: MTDITPVQNDVDVNGNNVNDDVSSNLKRPIDQGDPSNGLAEEENPANNQLHLKKARLDGDALTSSPAGLAENGIEGATLAANGENGYNATGSGAEDEQQGLKKEEGGQGTKQEDLDENSKQELPMEVPKEPAPAPPPEPDMNNLPQNPIPKHQQKHALLAIKAVKRLKDARPFLQPVDPVKLDIPFYFNYIKRPMDLSTIERKLNVGAYEVPEQITEDFNLMVNNSIKFNGPNAGISQMARNIQASFEKHMLNMPAKDAPPVIAKGRRSSAQ

binding [3]: binds | binding [1]: binds
B21: Toa1 ABD2 (aa 210–286) I269A R271A (domain or fragment, UniProt P32773 210-286)
chain: SALLDTDEVGSELDDSDDDYLISEGEEDGPDENLMLCLYDKVTRTKARWKCSLKDGVVTANANDYTFQKAQVEAEWV

binding [3]: binds | binding [1]: binds
B22: Toa1 ABD2 (aa 210–286) R253A K255A R257A K259A (domain or fragment, UniProt P32773 210-286)
chain: B21 chain with R44A, K46A, R48A, K50A, A60I, A62R

The next lines start with the binder.

B1: Bdf1 aa 1–131 L52A K53A K54A (domain or fragment, UniProt P35817 1-131)
chain: MTDITPVQNDVDVNGNNVNDDVSSNLKRPIDQGDPSNGLAEEENPANNQLHAAAARLDGDALTSSPAGLAENGIEGATLAANGENGYNATGSGAEDEQQGLKKEEGGQGTKQEDLDENSKQELPMEVPKEP
binding [1]: binds

B2: Bdf1 aa 1–131 L101A K102A K103A (domain or fragment, UniProt P35817 1-131)
chain: B1 chain with A52L, A53K, A54K, L101A, K102A, K103A
binding [1]: binds

B3: HA-Bdf1 aa 1–131 (domain or fragment, UniProt P35817 1-131)
chain: B1 chain with A52L, A53K, A54K
binding [1]: binds

B4: Bdf1 aa 1–131 N17A V18A N19A (domain or fragment, UniProt P35817 1-131)
chain: B1 chain with N17A, V18A, N19A, A52L, A53K, A54K
binding [1]: binds

B5: Bdf1 aa 1–131 E84A N85A (domain or fragment, UniProt P35817 1-131)
chain: B1 chain with A52L, A53K, A54K, E84A, N85A
binding [1]: binds

B6: Bdf1 aa 1–131 L26A K27A (domain or fragment, UniProt P35817 1-131)
chain: B1 chain with L26A, K27A, A52L, A53K, A54K
binding [1]: binds

B7: HA-Toa2 synthesized in E. coli (HA3-TOA2) (protein, UniProt P32774 1-122)
chain: MAVPGYYELYRRSTIGNSLVDALDTLISDGRIEASLAMRVLETFDKVVAETLKDNTQSKLTVKGNLDTYGFCDDVWTFIVKNCQVTVEDSHRDASQNGSGDSQSVISVDKLRIVACNSKKSE
binding [2]: binds weakly

B8: HA-Bdf1 (aa 1–686, full-length), synthesized in E. coli (protein, UniProt P35817 1-686)
chain: MTDITPVQNDVDVNGNNVNDDVSSNLKRPIDQGDPSNGLAEEENPANNQLHLKKARLDGDALTSSPAGLAENGIEGATLAANGENGYNATGSGAEDEQQGLKKEEGGQGTKQEDLDENSKQELPMEVPKEPAPAPPPEPDMNNLPQNPIPKHQQKHALLAIKAVKRLKDARPFLQPVDPVKLDIPFYFNYIKRPMDLSTIERKLNVGAYEVPEQITEDFNLMVNNSIKFNGPNAGISQMARNIQASFEKHMLNMPAKDAPPVIAKGRRSSAQEDAPIVIRRAQTHNGRPKRTIHPPKSKDIYPYESKKPKSKRLQQAMKFCQSVLKELMAKKHASYNYPFLEPVDPVSMNLPTYFDYVKEPMDLGTIAKKLNDWQYQTMEDFERDVRLVFKNCYTFNPDGTIVNMMGHRLEEVFNSKWADRPNLDDYDSDEDSRTQGDYDDYESEYSESDIDETIITNPAIQYLEEQLARMKVELQQLKKQELEKIRKERRLARGSKKRGKRSKGRSGSKNASSKGRRDKKNKLKTVVTYDMKRIITERINDLPTSKLERAIDIIKKSMPNISEDDEVELDLDTLDNHTILTLYNTFFRQYESSSGASNGLDGTSGVTRDASSLSPTSAGSRKRRSKALSQEEQSRQIEKIKNKLAILDSASPLSQNGSPGQIQSAAHNGFSSSSDDDVSSESEEE
binding [1]: binds

B11: Toa1 ABD1 (aa 1–143) V21A R22A (domain or fragment, UniProt P32773 1-143)
chain: B9 chain with V21A, R22A
binding [3]: binds

B12: HA-Bdf1 aa 350–436 (domain or fragment, UniProt P35817 350-436)
chain: NLPTYFDYVKEPMDLGTIAKKLNDWQYQTMEDFERDVRLVFKNCYTFNPDGTIVNMMGHRLEEVFNSKWADRPNLDDYDSDEDSRTQ
binding [1]: no binding

B13: HA-Toa1 aa 220–286 (domain or fragment, UniProt P32773 220-286)
chain: SELDDSDDDYLISEGEEDGPDENLMLCLYDKVTRTKARWKCSLKDGVVTINRNDYTFQKAQVEAEWV
binding [2]: binds

B14: HA-Bdf1 aa 437–686 (domain or fragment, UniProt P35817 437-686)
chain: GDYDDYESEYSESDIDETIITNPAIQYLEEQLARMKVELQQLKKQELEKIRKERRLARGSKKRGKRSKGRSGSKNASSKGRRDKKNKLKTVVTYDMKRIITERINDLPTSKLERAIDIIKKSMPNISEDDEVELDLDTLDNHTILTLYNTFFRQYESSSGASNGLDGTSGVTRDASSLSPTSAGSRKRRSKALSQEEQSRQIEKIKNKLAILDSASPLSQNGSPGQIQSAAHNGFSSSSDDDVSSESEEE
binding [1]: no binding

B20: Toa1 ABD2 (aa 210–286) K250A V251A (domain or fragment, UniProt P32773 210-286)
chain: B21 chain with K41A, V42A, A60I, A62R
binding [3]: binds | binding [1]: binds

B23: Toa1 ABD2 (aa 210–286) F276A K278A (domain or fragment, UniProt P32773 210-286)
chain: B21 chain with A60I, A62R, F67A, K69A
binding [3]: binds | binding [1]: binds

B24: HA-Toa1 aa 215–286 (domain or fragment, UniProt P32773 215-286)
chain: TDEVGSELDDSDDDYLISEGEEDGPDENLMLCLYDKVTRTKARWKCSLKDGVVTINRNDYTFQKAQVEAEWV
binding [2]: binds

From PMC10716077
